Assay results: the supplement of paper PMC11417369
± gives the standard deviation of the averaged measurements. The list shows a part of the results.

Test system: PfAP2-G AP2 domain (GST-tagged)
Assay: gcPBM binding intensity (ln(normalized median fluorescence intensity)); higher = stronger DNA binding
Procedure, shortened: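 After 1 h on an Agilent 4 × 180k array of primer-extended double-stranded 36-bp intergenic genomic probes and negative controls, bound GST-tagged P. falciparum DNA-binding domains were detected with Alexa488 anti-GST antibody and scanned at 488 nm. The domains had been expressed in E. coli, and binding took place in 1× PBS with 1% milk, 0.2 mg/ml BSA, 0.5% salmon testes DNA and 0.03% Triton X-100. Binding intensity is the highest Masliner-normalised natural-log median intensity across replicate spots of either probe orientation.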

Row | Sequence | gcPBM binding intensity (ln)
1 | GTTTATTCTTTTTATACACACCTTATTTGATTAACA [CACACA_site4567] | 10.06 ± 0.049
2 | TATACATAGAAACACACACACATATATATATATATA [CACACA_site2248] | 10.1 ± 0.37
3 | TTTATTTATGTAGATACACACCCATGTTATATGGAG [CACACA_site9144] | 10.1 ± 0.11
4 | TTCTAATATTTTTGCACACTAAACAATAAATTTCCT [CACACA_site3944] | 10.2 ± 0.23
5 | TGTGAATAAATAAGCACACATAAACACATATATAAA [CACACA_site6114] | 10.075 ± 0.007
6 | TTAAAAGAAAAAATATGTACATATATTATATATATC [XGTACX_site7009] | 11.2 ± 0.61
7 | TTACTACTATATTATACACACATATATATATATATA [CACACA_site2621] | 10.2 ± 0.4
8 | GCAACATTCTAAGACACACACACACCCATATATATA [CACACA_site1053] | 10.2 ± 0.26
9 | AATGATGTCATAGGGGGTACACATAAATGTGAATGT [XGTACX_site6745] | 11.5 ± 0.95
10 | ATATTAATAATATATACACACATAAGTATTGTATAT [CACACA_site4095] | 9.905 ± 0.064
11 | AGCAAAAATTAAATAAATAAATATATATATATATAT [TGCATGCA_negctrl_site449] | 9.85 ± 0.14
12 | AATAATATATATATATATATATATAGATATGTATAT [GTGCAC_negctrl_site653] | 9.54 ± 0.042
13 | TTTTTTTTTTTTTTTACACACATTTTAATAATTTTA [CACACA_site1492] | 9.71 ± 0.45
14 | TTGTAAAAAATTCATACACACGTCTTATTTTTAAGA [CACACA_site8390] | 9.895 ± 0.007
15 | ATTTTTTCTAAAAGTTGTACATTAAAACGTGTTCAC [XGTACX_site4803] | 11.5 ± 0.91
16 | AGTTTTATATTTCTGAGTACTTATGAATCTAGCTCG [XGTACX_site4330] | 11.2 ± 0.72
17 | AAGACTCTTTGTCCTTGTACATATATTTTTATGTTT [XGTACX_site3711] | 11.1 ± 0.69
18 | TTTATATAATATGAATGTACTTATATATTTATAGAC [XGTACX_site3261] | 11.2 ± 0.88
19 | AAAATGAATTTAAAATGTACTTTTTCTAAAGAGTAA [XGTACX_site2337] | 11.3 ± 0.88

Row | Sequence | gcPBM binding intensity (ln)
20 | TTATAGGTGCTTCGTAGTACATAAAAATAATATATA [XGTACX_site6979] | 11.1 ± 0.79
21 | TATTTATTCTCCAACACACACACATATATATATATA [CACACA_site2894] | 10.2 ± 0.2
22 | TATAAGTGCTCAACGGTGCATTTATAGAAGTTAAAC | 10 ± 0.16
23 | TATAAAATAAAAAATATATATATGTATATATATATA [TGCATGCA_negctrl_site163] | 9.74 ± 0.73
24 | ATTATTTTATATACATGTACATATTATATATAAAAG [XGTACX_site2735] | 11.2 ± 0.74
25 | TATAATTTTTACTGGGTGCACTCGATATTTTAAATA | 10.7 ± 0.62
26 | TAAATGTAAAACGAAATGCACACTATGGAAAATATA [CACACA_site724] | 10.19 ± 0.028
27 | CACACTTTTTAAATTAACGCATTTCAAAAAAAATAT [CACACA_negctrl_site84] | 10.09 ± 0.092
28 | TATTTATACACGCACACACACTTATACATTTATATA [CACACA_site7543] | 10.6 ± 0.18
29 | TTTCTTTTTTAGAGGTGTACACGTAGGCCTCTTGGA [XGTACX_site4760] | 11.6 ± 1
30 | TTAGATATTAATATATGTACATATTAATATATTTAC [XGTACX_site7119] | 11.1 ± 0.65
31 | TTGATAGACACATGCACACATGCAATACTTTATTCA [CACACA_site3000] | 10.2 ± 0.18
32 | TAGGTGTTAAAAAATACACACACAAAAAAAAAAAAA [CACACA_site7927] | 9.93 ± 0.45
33 | GGAATATTATTTCAATGTACATTTTGAGATTAGAAT [XGTACX_site8187] | 10.8 ± 0.5
34 | ATTATTATTTTACGTAGTACATATAATAAATATTTA [XGTACX_site8934] | 11.1 ± 0.85
35 | TTATTTCTAATTCGTTGTACAATATATAATATATAT [XGTACX_site5861] | 11.3 ± 0.81
36 | TATCCATATTTGTTCACACACACACGGATTTATATA [CACACA_site7649] | 10.2 ± 0.18
37 | ACATTTTTGGTTTTAGTGCAATATGAATTATTTTAT | 10.12 ± 0.078
38 | TCTTCCATTTTTATTACACACATAAATATGAAATCG [CACACA_site3471] | 10.1 ± 0.23

Row | Sequence | gcPBM binding intensity (ln)
39 | CCTTTAAGCAAAAACACACACACATATATATATATA [CACACA_site348] | 10 ± 0.24
40 | AAAGGTAAATGTAAATAAATAAATAATAAATATATA [GTGCAC_negctrl_site681] | 9.705 ± 0.007
41 | AACAGAATAATACTAAATGAACGATTTCTCTTTATG [GTGCAC_negctrl_site376] | 9.65 ± 0.21
42 | TGCAGTCTGGAGAAGAGTACACAGTATCTGGTAACA [XGTACX_site2037] | 11.4 ± 1.1
43 | TATATATTCATATGTTGTACATAAATACAAATAAGA [XGTACX_site5602] | 11.1 ± 0.89
44 | AAAAAAAAAAAGAAATGTACATGAATATTTTAAATG [XGTACX_site4069] | 11 ± 0.45
45 | ATTAATATGAATAAAACACACATATATAATTTGTAA [CACACA_site1929] | 9.855 ± 0.021
46 | TAACTTTTATCCTTAATTCATATATAAGATTAAATC [CACACA_negctrl_site669] | 9.9 ± 0.15
47 | ATTTTTTTTTTTTTTTTTTATATGCTCTCCATGAGA [CACACA_negctrl_site1225] | 9.7 ± 0.2
48 | AGGCAATATTATATATATATATATATATATATATAT [CACACA_negctrl_site826] | 9.91 ± 0.64
49 | CATGCTACATCTTATTGTACTTATCTAATGTTAGTA [XGTACX_site1863] | 11.2 ± 0.73
50 | AAAAAGGAGAAACACACACACACACCCATATATATA [CACACA_site905] | 10 ± 0.12
51 | TTGTAAATTTACATTTGTACATAAATATATTAATAT [XGTACX_site3969] | 10.9 ± 0.47
52 | TGTATGTTTGGGTGCACACATAAATATTATATATAG [CACACA_site3397] | 10.8 ± 0.71
53 | ATATATATAAAACACACACACACATGGTTTAAAACT [CACACA_site4219] | 10.12 ± 0.071
54 | TCTTTTTACACCTCTTACATAAAACAAAATAAGGGG [XGTACX_negctrl_site12] | 10.7 ± 0.38
55 | TATACATGTTATGTACATCTAATCACACGTGCAATA [CACACA_negctrl_site1267] | 11.3 ± 0.79
56 | TATTGTTATTAAAAATGTACATATAAATTTCTTATT [XGTACX_site1409] | 11.3 ± 0.79
57 | AAAAATAAAAGGTGTGCACACAAAAATATATATATA [CACACA_site8507] | 10.7 ± 0.44
